According to article PMC4336329 (PLoS ONE, 2015):
Out of some 310,000 compounds screened, about 14,000 (4.5%) showed an effect of 50% or more. The effect is printed as a negative number. The list shows a part of the results.

Each compound was assayed against human ether-à-go-go-related gene (hERG) potassium channel (human, UniProt Q12809) (assay: primary screen, population patch clamp on CHO cells stably expressing hERG).
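Note: peak tail current of the secondary pulse compared with the same well before compound.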

Sequence of human ether-à-go-go-related gene (hERG) potassium channel (Q12809 whole entry, looked up): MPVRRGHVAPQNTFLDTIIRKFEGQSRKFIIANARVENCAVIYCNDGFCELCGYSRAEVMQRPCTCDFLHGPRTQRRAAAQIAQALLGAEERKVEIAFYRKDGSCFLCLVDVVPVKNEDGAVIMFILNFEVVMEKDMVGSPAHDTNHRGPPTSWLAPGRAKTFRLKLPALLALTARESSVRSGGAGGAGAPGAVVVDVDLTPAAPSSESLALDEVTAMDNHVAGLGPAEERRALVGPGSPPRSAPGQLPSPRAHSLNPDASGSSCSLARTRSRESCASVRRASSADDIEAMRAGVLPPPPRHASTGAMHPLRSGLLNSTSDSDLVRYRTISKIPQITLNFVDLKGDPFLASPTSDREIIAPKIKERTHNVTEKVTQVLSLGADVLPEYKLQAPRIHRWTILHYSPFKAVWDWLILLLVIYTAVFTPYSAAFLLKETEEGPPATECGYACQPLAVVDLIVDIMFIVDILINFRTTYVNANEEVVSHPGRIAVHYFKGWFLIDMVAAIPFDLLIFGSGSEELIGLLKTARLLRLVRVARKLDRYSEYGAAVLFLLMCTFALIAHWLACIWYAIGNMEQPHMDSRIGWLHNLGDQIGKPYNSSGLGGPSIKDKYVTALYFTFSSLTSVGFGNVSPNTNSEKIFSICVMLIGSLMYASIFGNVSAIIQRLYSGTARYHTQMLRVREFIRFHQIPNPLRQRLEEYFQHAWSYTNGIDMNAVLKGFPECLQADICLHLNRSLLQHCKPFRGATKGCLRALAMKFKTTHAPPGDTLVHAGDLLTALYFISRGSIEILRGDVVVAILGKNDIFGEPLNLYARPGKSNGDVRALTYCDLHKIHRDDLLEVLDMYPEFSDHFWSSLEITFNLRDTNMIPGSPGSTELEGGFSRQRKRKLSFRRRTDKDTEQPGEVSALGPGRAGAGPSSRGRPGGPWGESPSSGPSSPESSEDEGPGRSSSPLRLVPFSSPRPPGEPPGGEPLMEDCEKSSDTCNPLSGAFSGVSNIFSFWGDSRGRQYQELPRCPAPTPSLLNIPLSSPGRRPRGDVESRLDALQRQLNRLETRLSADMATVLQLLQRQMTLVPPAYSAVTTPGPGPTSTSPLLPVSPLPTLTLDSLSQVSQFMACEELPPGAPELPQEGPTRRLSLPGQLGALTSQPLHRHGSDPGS

Compound	hERG current change (%, negative = inhibition) at 10uM
COc1cccc(C(=O)N(c2ccc(C)cc2)C2C=CS(=O)(=O)C2)c1 (stereo not drawn)	5.2%
CSc1ccccc1OCc1cc(C(=O)N2CCCC(C)C2)no1 (stereo not drawn)	-0.622%
O=C(CCNS(=O)(=O)c1ccccc1C(F)(F)F)N1CCCCCCC1	-11.6%
CCOC(=O)COc1ccc(C(=O)c2ccccc2)c(O)c1	14.8%
COC(=O)c1sccc1-n1cccc1C(=O)C(=O)Nc1ccc(F)cc1	-13.5%
Cc1cc(NO)nc(-c2ccc(Br)cc2)n1	2.74%
COc1ccc(N(C)C(=O)c2cn(CC(C)C)c(=O)c3cc(OC)c(OC)cc23)cc1	8.8%
COCCCNC(=O)c1cc2c(s1)CS(=O)(=O)C2	-1.4%
O=S(=O)(Cc1ccc(Cl)cc1)N1CCN(Cc2ccc3c(c2)OCO3)CC1	-4.23%
COC(=O)c1cc(NC(=O)c2ccc(C)cc2)c(=O)oc1C	20.9%
CCn1nc(NC(=O)c2ccco2)c2cc3cc(C)ccc3nc21	12.3%
C/C(=N\Nc1nncc2ccccc12)c1ccc(O)cc1	7.36%
Cc1ccc(CNC(=O)Cn2ccc(NC(=O)OCc3ccccc3)nc2=O)o1	2.29%
COc1ccccc1NC(=O)C1=C(C)Nc2nc(CCCO)nn2C1c1ccc2c(c1)OCO2 (stereo not drawn)	7.42%
Cc1cc(C)cc(N2CC(C(=O)O)CC2=O)c1 (stereo not drawn)	22.1%
CC1=C(C(=O)OC(C)C)C(c2ccc(Br)s2)NC(=O)N1 (stereo not drawn)	-48%
CCOc1ccc(C(C)=O)cc1CN1C(=O)NC2(CCCCCCC2)C1=O	-46.5%
O=C(Cc1ccccc1)Nc1ccc2c(c1)C(=O)N(CC1CCCO1)C2=O (stereo not drawn)	-4.72%
Cc1ccc2cc(C)c(NCCO)nc2c1	-3.56%
COc1ccccc1N1CCN(C(=O)c2cc3c(=O)n4ccccc4nc3s2)CC1.Cl	-53.2%
CC(=O)Nc1sc(C)c(C)c1C(=O)OCC(=O)N(C)c1c(N)n(Cc2ccccc2)c(=O)[nH]c1=O	0.508%
O=C(NCc1ccccn1)c1ccc(Cn2c(=S)[nH]c3ccccc3c2=O)cc1	6.45%

Compound	hERG current change (%, negative = inhibition) at 10uM
CSc1nc2[nH]c3c(c2c2ncnn12)CCCC3	-3.68%
O=S(=O)(c1ccccc1)c1cnn2c(C(F)(F)F)cc(-c3ccccc3)nc12	-8.9%
CCOC(=O)N1CCN(C(=O)c2ccc(CS(=O)(=O)c3ccc(OC)cc3)o2)CC1	-16%
O=C(Nc1ccc(Cl)cc1Cl)c1ccc(-c2ccccc2)cc1	14.4%
Cc1cccc(CC(C)NC(=O)CCc2nnc(-c3ccccc3)o2)n1 (stereo not drawn)	0.407%
COc1ccc(OC)c(NC(=O)CSc2nnc(C3CCCCC3)o2)c1	-19%
CCOC(=O)N1CCN(C(=S)NC2CCCCC2)CC1	-14.4%
FC(F)(F)c1cccc(NC(=S)NNC(=S)NCc2ccccc2)c1	19.3%
CCn1cc(C(=O)OCc2ccccc2)c(=O)c2ccc(C)nc21	-16.8%
Cc1ccc(C(=O)c2cc([N+](=O)[O-])ccc2N2CC(C)OC(C)C2)cc1 (stereo not drawn)	-0.127%
O=C(CN(C(=O)CNC(=O)c1ccco1)c1ccccc1F)NC1CCCCC1	11.2%
CCOC(=O)N1CCN(C(=O)/C(=C/c2ccc(Br)cc2)NC(=O)c2ccc(OC)cc2)CC1	-78.2%
COc1cccc(Cn2nnc(C(=O)Nc3ccc(C)cc3)c2N)c1	17.9%
Cc1ccccc1-c1nc2cc(N)ccc2o1	-15.6%
CCOc1ccccc1CN1CCN(Cc2nc3c(s2)CCCC3)CC1CCO (stereo not drawn)	-67.9%
Cc1ccccc1C(=O)N1CCN(c2ccc(NC(=O)c3ccccc3[N+](=O)[O-])cc2)CC1	0.716%
CCOC(=O)N1CCN(C(=O)c2cccc(OC)c2O)CC1	-4.53%
CN(c1ccc(C(=O)Nc2cccnc2)cc1)S(=O)(=O)c1ccccc1	-14.9%
O=C(CN1CCOCC1)Nc1ccc2c(c1)CCC2	8.21%
CN1CCN(CCCNC(=O)CCN2C(=O)COc3ccccc32)CC1	0.334%
C[C@H](NC(=O)c1nc[nH]c1C(=O)NCCCCCNC(=O)OC(C)(C)C)c1ccccc1	-22.3%
CCOc1ccc(/C=N/NC(=O)c2nnn(-c3nonc3N)c2-c2ccc(OCC)cc2)cc1	8.86%

Compound	hERG current change (%, negative = inhibition) at 10uM
CSc1cccc(NC(=O)CSc2ccccc2)c1	2.1%
COC(=O)Cc1c(C)c2ccc(OC(=O)c3ccco3)cc2oc1=O	8.37%
Cc1cc(-c2nnco2)c(C)n1-c1ccc(F)cc1	1.81%
CCOc1cc(/C=N/NC(=O)COc2cccc(C)c2)ccc1OC(=O)c1cccs1	-0.972%
COc1cccc(C2c3c(-c4ccccc4)n[nH]c3C(=O)N2c2ccc(C(=O)O)cc2)c1 (stereo not drawn)	10.6%
Cc1cc(NC(=O)CSc2ncn[nH]2)no1	-3.9%
CCn1c(=O)cc(SCC(=O)NCc2ccc(C)cc2)c2ccccc21	4.39%
CC1(C)Cc2cccc(OCC(=O)OCC(=O)NCc3ccccc3)c2O1	-0.697%
COc1ccc(-c2nnc(N(C)C(=O)c3ccno3)s2)cc1	9.59%
COc1ccc(CCN2C(=O)N(c3ccc(OC)cc3)C(=O)C2CC(=O)Nc2ccc(OC)cc2)cc1 (stereo not drawn)	7.46%
CC(C)C(NC(=O)c1ccccc1)C(=O)OCn1nnc2ccccc2c1=O (stereo not drawn)	-8.61%
COCCNC(=O)c1c(N)n(CCC2=CCCCC2)c2nc3ccccc3nc12	8.15%
O=C1c2cccc3c2N(CCC3)C(=O)C1(F)c1ccccc1 (stereo not drawn)	-4.52%
CC(=O)Nc1ccc(/C=C/c2noc(-c3ccccc3O)n2)cc1	24.9%
CC(C(=O)N1CCCc2ccccc21)N1CCN(c2ccccn2)CC1 (stereo not drawn)	11%
O=C(CSc1ccc(Cl)cc1)N1CCN(c2ncc(C(F)(F)F)cc2Cl)CC1	-26%
CC(C)[C@H]1C(=O)Nc2ccccc2N1C(=O)N[C@@H](Cc1ccccc1)C(=O)N[C@@H](C(=O)O)c1ccccc1	4.02%
COc1cc(OC)cc(C(=O)NCCOc2ccccc2)c1	-17.6%
COc1ccc(S(=O)(=O)N2c3ccccc3OCC2c2ccccc2)cc1 (stereo not drawn)	6.69%
O=C(Nc1ccccc1N1CCCC1)c1ccc2c(c1)OCO2	-3.23%
COc1cc(O)c(C(CC(=O)N2CCCC2)c2cc(OC)c(OC)c(OC)c2)c(OC)c1 (stereo not drawn)	18%
CC(C)CCNC(=O)C1CCC(CNS(=O)(=O)c2cccc3nsnc23)CC1 (stereo not drawn)	-0.113%

Compound	hERG current change (%, negative = inhibition) at 10uM
CC(C)(C)n1cnnc1Sc1ncccc1[N+](=O)[O-]	13.3%
O=C(COc1ccc(Cl)cc1)NNC(=O)c1cccnc1	3.87%
O=C(O)c1ccc2cccc(Cl)c2c1O	5.75%
C[C@@H]1C=C(C(=O)NCc2nc3ccccc3[nH]2)O[C@H](OCCCCO)C1	0.943%
Nc1nonc1-n1nnc(C(=O)N/N=C/c2ccccc2F)c1CN1CCc2ccccc21	7.9%
O=C(Nc1ccccc1F)C1C2C=CC3(O2)C1C(=O)N(c1cccnc1)C3C(=O)NC1CCCCC1 (stereo not drawn)	-9.01%
Cc1nnc(NCc2n[nH]c(=O)c3ccccc23)c2ccccc12	1.84%
CCN(CC(O)CON=C1c2ccccc2-c2ccccc21)S(=O)(=O)c1ccc(Cl)cc1 (stereo not drawn)	2.32%
COCc1cc(/C=N\NC(=O)Cc2ccc(OC)cc2)ccc1OC	-4.03%
CCCn1nnnc1NCc1ccccc1Cl	6.12%
COC(=O)c1ccc(C(=O)OC)c(NC(=O)COC(=O)C23CC4CC(CC(O)(C4)C2)C3)c1	-19.2%
COc1ccc(C(=O)NCCCSC)cc1OC1CCN(C(C)C)CC1	-11.8%
CCOC(=O)C1CCCN(c2c(N3CCN(C4CCCCC4)CC3)c(=O)c2=O)C1 (stereo not drawn)	-55.8%
O=S(=O)(Nc1ccc2c(c1)OCCO2)c1ccc2oc3ccccc3c2c1	-6.85%
Cc1ccc(Oc2ncc(CN3CC(C)OC(C)C3)s2)cc1 (stereo not drawn)	-7.61%
O=C(O)C1CCCCC1C(=O)Nc1ccc2c(c1)OCCO2 (stereo not drawn)	3.83%
CC1=Nc2cc(C(=O)O)ccc2Sc2ccc(Br)cc21	11.6%
Cc1ccccc1N1CCN(S(=O)(=O)c2ccc3ccccc3c2)CC1	9.64%
O=C(NCc1ccccc1Cl)C1CCCN(c2nc3ccsc3c(=O)s2)C1 (stereo not drawn)	10.1%
COCCN(CCOC)C(=O)COC(=O)c1cc([N+](=O)[O-])ccc1Cl	-17.3%
CCN(CC)S(=O)(=O)c1cccc(NC(=O)CN2C(=O)c3ccc([N+](=O)[O-])cc3C2=O)c1	-20.5%
